{
  "source": "PubChem BioAssay AID1460",
  "about": "(National Center for Advancing Translational Sciences (NCATS), 2008)",
  "note": "“And” between values parts separate entries of the source, which are not always exact repeats. Equal values may be shown once. Among all 270,000 compounds or so, about 5,800 (2.1%) were called active. Inconclusive means that the source gave no clear call. Such entries were picked first, then a sample of the others. Calls follow the shape of the dose curve; as a rule, active = well fitted inhibition curve with a large enough effect; inconclusive = small, poorly fitted or top-dose-only effect; inactive = flat fitted curve, though single readings scatter. Potencies beside an inconclusive call are fits to weak or partial responses and may not hold up. % is scaled to controls: 0 for no effect and ±100 for the full control effect; potency is read from the fitted curve at half-maximal effect; tags tell the direction and shape of the fitted curve.",
  "data": [
    {"target": "Microtubule-associated protein tau (Homo sapiens) (UniProt P10636)", "sequence (P10636 whole entry, looked up, the tested form may be a part)": "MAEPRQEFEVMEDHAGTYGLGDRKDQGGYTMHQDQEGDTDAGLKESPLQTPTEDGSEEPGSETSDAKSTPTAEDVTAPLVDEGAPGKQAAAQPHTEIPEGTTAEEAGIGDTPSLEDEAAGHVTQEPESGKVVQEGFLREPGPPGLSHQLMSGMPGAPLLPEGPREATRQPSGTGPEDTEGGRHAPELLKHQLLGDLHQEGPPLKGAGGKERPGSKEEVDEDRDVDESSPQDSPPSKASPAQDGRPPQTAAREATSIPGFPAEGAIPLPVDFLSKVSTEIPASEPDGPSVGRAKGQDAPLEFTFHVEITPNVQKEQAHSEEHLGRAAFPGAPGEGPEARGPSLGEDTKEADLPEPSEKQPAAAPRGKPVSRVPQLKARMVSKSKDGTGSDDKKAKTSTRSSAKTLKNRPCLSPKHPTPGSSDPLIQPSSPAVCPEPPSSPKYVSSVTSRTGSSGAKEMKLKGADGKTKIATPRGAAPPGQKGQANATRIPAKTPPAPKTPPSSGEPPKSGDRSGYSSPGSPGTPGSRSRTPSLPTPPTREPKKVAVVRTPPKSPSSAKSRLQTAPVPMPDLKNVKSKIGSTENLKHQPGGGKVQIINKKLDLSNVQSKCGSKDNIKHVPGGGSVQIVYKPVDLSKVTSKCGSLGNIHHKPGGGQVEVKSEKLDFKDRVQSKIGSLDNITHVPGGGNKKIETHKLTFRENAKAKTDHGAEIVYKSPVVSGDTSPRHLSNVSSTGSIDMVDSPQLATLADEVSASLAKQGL", "experiment": "qHTS for Inhibitors of Tau Fibril Formation, Thioflavin T Binding; also: nearly all actives have a fitted effect of over 55% in size", "conditions": "recombinant tau K18 P301L (four-repeat tau fragment), heparin-induced fibrillization, ThT fluorescence; series mostly up to 57.4 µM; activity, negative = inhibition: at the top concentration", "procedure,_shortened": "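Tau K18 P301L fragment (15 uM unlabeled plus 0.24 uM Alexa 594-labeled) in 100 mM sodium acetate pH 7 with compound, fibrillization induced by 20 uM heparin for 6 hr at 37 C. Thioflavin T (30 uM) added, fluorescence read after 1 hr (ex 450, em 510 nm).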", "values": [
      {"smiles": "CN(C)c1ccc(/C=N/NC(=O)CCc2nc3ccccc3[nH]2)cc1", "Potency": "inconclusive: 25.1 µM [inhibitor, partial curve, poor fit]"},
      {"smiles": "CN(Cc1cccs1)c1nc(-c2cccnc2)nc2ccccc12", "Potency": "inconclusive: 39.8 µM [inhibitor, single point]"},
      {"smiles": "CCCCNc1cc(NC2CCCCC2)c2c3c(onc13)-c1ccccc1C2=O", "Potency": "inconclusive: 8.91 µM [inhibitor, full curve]"},
      {"smiles": "COCCCNC(=O)c1c(NC(=O)c2cc(=O)c3cc(C)c(C)cc3o2)sc2c1CCCC2", "Potency": "inconclusive: 44.7 µM [inhibitor, single point]"},
      {"smiles": "Cc1cc(Nc2ccc([N+](=O)[O-])cc2)nc2ccccc12", "Potency": "inconclusive: 2.82 µM [inhibitor, full curve]"},
      {"smiles": "CCOC(=O)c1c(/N=C/c2ccc(OC)cc2O)sc2c1CCN(C)C2", "Potency": "inconclusive: 12.6 µM [inhibitor, partial curve]"},
      {"smiles": "COc1ccc(OC)c(NC(=O)C2CCCN(S(=O)(=O)c3c(C)noc3C)C2)c1", "note": "(stereo unspecified)", "Potency": "inconclusive: 8.91 µM [inhibitor, partial curve]"},
      {"smiles": "Cc1cccn2c(=O)c(/C=C3\\SC(=S)NC3=O)c(NCCCN3CCOCC3)nc12", "Potency": "inconclusive: 1.78 µM [inhibitor, full curve]"},
      {"smiles": "Cc1ccc(C2=NN(C)c3nc4ccccc4n3C2)cc1", "Potency": "inconclusive: 15.8 µM [inhibitor, partial curve]"},
      {"smiles": "CCC(=O)N1CCN(c2ccccc2NC(=O)Cc2ccc(Cl)cc2)CC1", "activity, negative = inhibition": "inactive: -8.79%"},
      {"smiles": "Nc1ccc(Nc2ccccc2)c(S(=O)(=O)O)c1", "Potency": "inconclusive: 35.5 µM [inhibitor, partial curve, poor fit]"},
      {"smiles": "CN(C(=O)Nc1cn(C)c(=O)c2ccccc12)c1ccccc1", "activity, negative = inhibition": "inactive: -0.71%"},
      {"smiles": "C=CCC(NC(C)c1ccccc1)c1ccco1", "note": "(stereo unspecified)", "activity, negative = inhibition": "inactive: 3.82%"},
      {"smiles": "Cc1ccccc1C(=O)N1CCN(c2ccc([N+](=O)[O-])c(NCc3cccnc3)c2)CC1", "Potency": "inconclusive: 28.2 µM [inhibitor, partial curve]"},
      {"smiles": "Cc1c(NC(=O)c2cc3nc(-c4ccc(Br)cc4)cc(C(F)(F)F)n3n2)c(=O)n(-c2ccccc2)n1C", "Potency": "inconclusive: 14.1 µM [inhibitor, partial curve]"},
      {"smiles": "CCOC(=O)c1c(CSC(=N)N)n(-c2ccc(C)cc2)c2cc(Br)c(OC(C)=O)cc12", "Potency": "inconclusive: 25.1 µM [inhibitor, single point]"},
      {"smiles": "Cc1cccc(NC(=O)c2cc([N+](=O)[O-])ccc2NC2CCCCC2)c1", "Potency": "inconclusive: 39.8 µM [inhibitor, single point]"},
      {"smiles": "Cc1ccc(C(=O)/C=C/c2c(C)nn(-c3ccccc3)c2Cl)cc1", "Potency": "inconclusive: 15.8 µM [inhibitor, partial curve]"},
      {"smiles": "COc1ccc([C@H]2C=C(C(=O)O)O[C@@H](OCc3ccc(CO)cc3)C2)cc1", "Potency": "inconclusive: 0.0251 µM [inhibitor, full curve, poor fit]"},
      {"smiles": "NC(=O)Nc1ccc(Nc2ccccc2)cc1", "Potency": "inconclusive: 14.1 µM [inhibitor, partial curve]"},
      {"smiles": "O=C(Cn1cc2c(n1)CCCCC2)N1CCCCC1", "activity, negative = inhibition": "inactive: 1.38%"},
      {"smiles": "COc1cccc(NS(=O)(=O)c2ccc3[nH]cc(C(=O)NC4CCCCC4)c(=O)c3c2)c1", "Potency": "inconclusive: 39.8 µM [activator, single point]"},
      {"smiles": "CCCCCOC(=O)CC(C(=O)OCCCCC)N1CCCCC1", "note": "(stereo unspecified)", "Potency": "inconclusive: 12.6 µM [inhibitor, partial curve]"},
      {"smiles": "C/C(=N\\NC(=O)c1ccc(N/N=C(\\C)c2ccncc2)cc1)c1ccncc1", "Potency": "inconclusive: 2.82 µM [inhibitor, partial curve]"},
      {"smiles": "O=S(=O)(NCc1ccccc1)c1ccc2[nH]c3c(c2c1)CCCCC3", "activity, negative = inhibition": "inactive: 11.4%"},
      {"smiles": "O=[N+]([O-])c1ccc(O)c2ncccc12", "Potency": "inconclusive: 8.91 µM [inhibitor, partial curve]"},
      {"smiles": "COC(=O)CC1Oc2cc3oc4c(c3cc2O1)C(=O)CC(C)(C)C4", "note": "(stereo unspecified)", "activity, negative = inhibition": "inactive: -12.4%"},
      {"smiles": "CC(C)NC(=O)c1onc(CSc2ccc(F)c(F)c2)c1C(=O)O", "activity, negative = inhibition": "inactive: -9.99%"},
      {"smiles": "COc1ccc(OC)c(CCNC(=O)Cn2sc3nc(C)cc(C)c3c2=O)c1", "Potency": "active: 11.2 µM"},
      {"smiles": "CCCCCCC#CC1C=CC(OC(C)=O)C(COC(C)=O)O1", "note": "(stereo unspecified)", "Potency": "inconclusive: 5.01 µM [inhibitor, single point]"},
      {"smiles": "CCC(C)[C@@H](N)C(=O)N/N=C/c1ccc2ncccc2c1", "note": "(stereo partly specified)", "activity, negative = inhibition": "inactive: 2.61%"},
      {"smiles": "COc1cc(NC(=O)CCNS(=O)(=O)c2ccc3c(c2)CCC(=O)N3)cc(OC)c1", "activity, negative = inhibition": "inactive: -17.3%"},
      {"smiles": "CC(C)(C)c1ccc(-c2noc(CCC(=O)NCc3ccco3)n2)cc1", "activity, negative = inhibition": "inactive: -11%"},
      {"smiles": "COC(=O)c1cc2sccc2n1Cc1ccccc1", "Potency": "inconclusive: 25.1 µM [inhibitor, single point]"},
      {"smiles": "Cc1ccc(C(=O)N2CCc3ccccc32)o1", "Potency": "inconclusive: 20 µM [inhibitor, single point]"},
      {"smiles": "CC(Oc1ccccc1)C(=O)N=Nc1c(O)[nH]c2ccc(Br)cc12", "note": "(stereo unspecified)", "Potency": "inconclusive: 10 µM [inhibitor, partial curve]"},
      {"smiles": "CCCOc1ccc(CNC(=O)C2CCN(c3nc4ccccc4nc3C(F)(F)F)CC2)cc1", "activity, negative = inhibition": "inactive: 4.85%"},
      {"smiles": "N#C/C(=C\\c1cccs1)C(=O)Nc1nccs1", "Potency": "inconclusive: 20 µM [inhibitor, partial curve]"},
      {"smiles": "COc1cc(C2SC(C)C(=O)N2CCc2ccccc2)cc(OC)c1OC", "note": "(stereo unspecified)", "Potency": "inconclusive: 8.91 µM [inhibitor, single point]"},
      {"smiles": "CCCCC1=CC2=C(c3ccco3)C(=O)C(C)(OC(=O)c3ccc(OC)cc3)C(=O)C2=CN1CCc1c[nH]c2ccccc12", "note": "(stereo unspecified)", "activity, negative = inhibition": "inactive: 3.32% [at 11.5 µM]"},
      {"smiles": "Cc1cccc[n+]1C1C(c2ccc([N+](=O)[O-])cc2)C(C#N)=C(C(=C=[N-])C#N)NC1(O)C1CC1", "note": "(stereo unspecified)", "Potency": "inconclusive: 15.8 µM [inhibitor, partial curve]"},
      {"smiles": "CCOc1ccc(-n2c(SCC(=O)Nc3ccccc3CC)nc3n[nH]c(C)c3c2=N)cc1", "Potency": "inconclusive: 17.8 µM [inhibitor, partial curve]"},
      {"smiles": "CCOc1ccc(-c2c(C)nn3c(C)c(C(=O)NCC(C)c4ccccc4)cnc23)cc1OCC", "note": "(stereo unspecified)", "Potency": "inconclusive: 12.6 µM [inhibitor, partial curve]"},
      {"smiles": "CCCc1c(C(=O)Nc2cc(C)on2)cnn1-c1ccccc1", "activity, negative = inhibition": "inactive: -6%"},
      {"smiles": "O=C(CSc1nc(O)c(C2CCCCC2)c(=O)[nH]1)NCC1CCCO1", "note": "(stereo unspecified)", "Potency": "inconclusive: 20 µM [inhibitor, partial curve]"},
      {"smiles": "COc1ccc(C2=C(C#N)C(=O)OC2)cc1", "Potency": "inconclusive: 25.1 µM [inhibitor, single point]"},
      {"smiles": "COc1ccccc1CN1CCNC(=O)C1CC(=O)NCCC1=CCCCC1", "note": "(stereo unspecified)", "Potency": "inconclusive: 11.2 µM [inhibitor, partial curve]"},
      {"smiles": "O=C1N(Cc2cccnc2)C[C@@H]2C[C@@H](c3ccc(-c4ccccc4)cc3)N3CCC[C@@]123", "Potency": "inconclusive: 39.8 µM [inhibitor, single point]"},
      {"smiles": "Cc1c(CNC(C)c2ccccc2)c(C(=O)O)c(C)n1Cc1c(F)cccc1Cl", "note": "(stereo unspecified)", "activity, negative = inhibition": "inactive: -8.01%"},
      {"smiles": "O=C(NNc1nc(-c2ccccc2)cs1)c1cccs1", "Potency": "inconclusive: 14.1 µM [inhibitor, partial curve]"},
      {"smiles": "Cc1ccc(N(Cc2ccco2)C(=O)c2ccc(N3CCCCC3)c([N+](=O)[O-])c2)cc1", "Potency": "inconclusive: 17.8 µM [inhibitor, partial curve, poor fit]"},
      {"smiles": "CCOC(=O)c1sc2nc3c(SCC(=O)O)cc(C(=O)c4cc(F)ccc4O)cn3c(=O)c2c1C", "Potency": "active: 12.6 µM"},
      {"smiles": "Cc1c(C)c2cc(Cl)c(O)c(CN3CCN(C)CC3)c2oc1=O", "Potency": "inconclusive: 44.7 µM [inhibitor, single point]"},
      {"smiles": "COc1ccc(/C=C2\\N=C(SC)N(C)C2=O)cc1", "Potency": "inconclusive: 10 µM [inhibitor, partial curve]"},
      {"smiles": "CCc1cccc(C)c1Nc1c(-c2ccc(N3CCOCC3)cc2)nc2ncccn12", "Potency": "inconclusive: 15.8 µM [inhibitor, partial curve]"},
      {"smiles": "C=C1C=C(Br)C2(OCCCO2)[C@H]2OC12", "note": "(stereo partly specified)", "activity, negative = inhibition": "inactive: -7.79% [at 11.5 µM]"},
      {"smiles": "Clc1c(CSc2nc3ccccc3o2)nc2ccccn12", "Potency": "inconclusive: 25.1 µM [inhibitor, partial curve, poor fit]"},
      {"smiles": "COc1ccc(OCCn2cc(/C=N/NC(=O)c3ccncc3)c3ccccc32)cc1", "Potency": "inconclusive: 20 µM [inhibitor, partial curve]"},
      {"smiles": "CCCCOCCCNC(=S)Nc1ccc(S(=O)(=O)N2CCOCC2)cc1", "activity, negative = inhibition": "inactive: -0.97%"},
      {"smiles": "Cc1ccc(-n2nc(CO)c(C(=O)NCCc3ccccc3)n2)cc1C", "Potency": "inconclusive: 8.91 µM [inhibitor, single point]"},
      {"smiles": "O=[N+]([O-])c1cc(C2Nc3cccc4cccc(c34)N2)ccc1Cl", "Potency": "active: 17.8 µM"},
      {"smiles": "CCS(=O)(=O)c1ccc(O)c(NC(=O)/C=C/c2ccc(Cl)cc2)c1", "Potency": "inconclusive: 31.6 µM [inhibitor, single point]"},
      {"smiles": "COc1cc(O)c(C(=O)/C=C/c2ccccc2)c(OC)c1", "Potency": "inconclusive: 10 µM [inhibitor, partial curve] and inconclusive: 14.1 µM [inhibitor, partial curve]"},
      {"smiles": "CSc1nc2ccc(NS(=O)(=O)c3ccc4c(c3)OCCO4)cc2s1", "Potency": "inconclusive: 28.2 µM [inhibitor, single point]"},
      {"smiles": "COc1cc(-c2noc(-c3nnn(-c4ccc(Cl)cc4)c3C)n2)cc(OC)c1OC", "Potency": "inconclusive: 3.16 µM [inhibitor, full curve]"},
      {"smiles": "CC#CCN1c2ccccc2[C@]23C[C@@H](C(=O)OC)N(S(=O)(=O)CCCC)C2=NC(C(=O)OC)=C(C(=O)OC)[C@H]13", "Potency": "inconclusive: 8.91 µM [inhibitor, single point]"}
    ]}
  ]
}
